Measurements: article PMC5308896, “A conformational switch regulates the ubiquitin ligase HUWE1” (eLife, 2017)
Results are given in words; binding and its absence hold for the method and conditions named. For some of these results: In cells and extracts the contact can be indirect. Some results given as binding are weak or reduced against the parent protein; the word gives no strength.

Key:
[1] = target: HUWE1 (3951–4374) I3969A/F3982A (human) (UniProt Q7Z6Z7); experiment: SEC-MALS; proteins injected at high concentration (~350 to 400 μM; highest point of Figure 3A, Figures 4A, 4F, 4G, Table 2); Superdex 200 10/300 GL, room temperature, 20 mM HEPES pH 8.0, 250 mM NaCl, 1 mM EDTA, 5 mM DTT; both purified
[2] = target: HUWE1 (3975–4374) (human) (UniProt Q7Z6Z7); experiment: SAXS; ~40 μM protein, 10°C, 20 mM HEPES pH 8.0, 150 mM NaCl, 1 mM EDTA, 5 mM DTT; profiles compared with curves simulated from the crystal structure; Rg from Guinier fits; both purified
[3] = target: HUWE1 (3975–4374) (human) (UniProt Q7Z6Z7); experiment: SEC-MALS; proteins injected at high concentration (~350 to 400 μM; highest point of Figure 3A, Figures 4A, 4F, 4G, Table 2); Superdex 200 10/300 GL, room temperature, 20 mM HEPES pH 8.0, 250 mM NaCl, 1 mM EDTA, 5 mM DTT; both purified
[4] = target: HUWE1 (2474–4374) WT, HA- and FLAG-tagged versions (human) (UniProt Q7Z6Z7); experiment: co-IP; HeLa cells transiently transfected with HA- and FLAG-tagged HUWE1 (2474–4374); lysis in TNT buffer (50 mM Tris pH 8.0, 250 mM NaCl, 1% Triton X-100); protein G-agarose with anti-HA or anti-FLAG
[5] = target: HUWE1 (2474–4374) WT, HA- and FLAG-tagged versions (human) (UniProt Q7Z6Z7); experiment: co-IP; HeLa cells stably expressing HA- and FLAG-tagged HUWE1 (2474–4374) WT, made by lentiviral transduction (higher HUWE1 levels than transient transfection)
[6] = target: HUWE1 (2474–4374) WT, HA- and FLAG-tagged versions (human) (UniProt Q7Z6Z7); experiment: co-IP; HeLa cells stably expressing HA- and FLAG-tagged HUWE1 (2474–4374) WT, made by transposon-mediated gene delivery (significantly lower HUWE1 levels than transient transfection)
[7] = target: HUWE1 (2474–4374) WT, HA- and FLAG-tagged versions (human) (UniProt Q7Z6Z7); experiment: co-IP; inverse co-IP (FLAG-IP) from transiently transfected HeLa cells; data not shown
[8] = target: HUWE1 (3993–4374), HECT domain (human) (UniProt Q7Z6Z7); experiment: SEC; MBP-tagged activation segment (or MBP) and HUWE1 constructs, each alone at 120 μM and as a 1.5:1 molar mixture; Superdex 200 Increase 3.2/300, 4°C, 20 mM HEPES pH 8.0, 100 mM NaCl, 1 mM EDTA, 5 mM DTT; both purified
[9] = target: HUWE1 (3975–4374) (human) (UniProt Q7Z6Z7); experiment: as above
[10] = target: T1, HUWE1 (3993–4374), HECT domain (human), Q7Z6Z7; experiment: SEC-MALS; proteins injected at high concentration (~350 to 400 μM; highest point of Figure 3A, Figures 4A, 4F, 4G, Table 2); Superdex 200 10/300 GL, room temperature, 20 mM HEPES pH 8.0, 250 mM NaCl, 1 mM EDTA, 5 mM DTT; both purified; details: remark: other sources report otherwise
T1 chain: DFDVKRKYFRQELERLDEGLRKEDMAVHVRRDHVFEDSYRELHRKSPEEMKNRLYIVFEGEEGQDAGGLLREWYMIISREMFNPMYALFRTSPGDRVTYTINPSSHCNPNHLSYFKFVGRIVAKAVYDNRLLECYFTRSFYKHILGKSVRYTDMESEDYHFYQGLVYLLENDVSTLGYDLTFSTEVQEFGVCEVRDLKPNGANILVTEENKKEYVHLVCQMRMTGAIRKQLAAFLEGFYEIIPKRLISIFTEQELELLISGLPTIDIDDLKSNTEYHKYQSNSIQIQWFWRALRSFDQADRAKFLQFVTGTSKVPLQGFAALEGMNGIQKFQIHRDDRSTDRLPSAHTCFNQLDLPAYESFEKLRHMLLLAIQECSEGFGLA

In the case of “HUWE1 (3951–4374) I3969A/F3982A (from UniProt Q7Z6Z7 3951-4374) (domain or fragment)”, the binding [1] is reported as “no binding (tested: ~350 μM)”.

“HUWE1 (3975–4374) (from UniProt Q7Z6Z7 3975-4374) (domain or fragment)” was tested, and the binding [2] was “no binding (tested: 40 μM)” and the binding [3] was “no binding (tested: 380 μM)”.

“HUWE1 (2474–4374) WT, HA- and FLAG-tagged versions (from UniProt Q7Z6Z7 2474-4374) (domain or fragment)” was tested, and the binding [4] was “binds”, the binding [5] was “binds” and the binding [6] was “binds”. For the same molecule, the binding [7] was “binds”.

“MBP-tagged activation segment of HUWE1 (residues 3843–3902) (from UniProt Q7Z6Z7 3843-3902) (domain or fragment)” was tested, and the binding [8] was “no binding (tested: 120 μM, 1.5:1 molar mixture)” and the binding [9] was “no binding (tested: 120 μM, 1.5:1 molar mixture)”.

B1: HUWE1 (3993–4374), HECT domain, Q7Z6Z7 3993-4374 (domain or fragment)
chain: T1 chain
In the case of B1, the binding [10] is reported as “no binding (tested: 400 μM)”.
